Experimental data published in the supplement of paper PMC3334620.
In all, about 33,000 sequences were measured (“E-score (-0.5 to 0.5)”: median about -0.054, highest 2% from about 0.39 on). The list shows a part of the results.

Biological target: Ylr278c (UniProt Q05854)
Assay: PBM E-score (8-mer binding enrichment) (E-score (-0.5 to 0.5)); higher = stronger / more preferred TF binding; most listed sequences are background and not binding sites
Conditions: protein concentration: 200 nM; construct: GST-DNA-binding domain
Outline: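 E-scores (a modified Wilcoxon-Mann-Whitney statistic) were assigned by the Universal PBM Analysis Suite to every ungapped eight-base word pooled with its reverse complement. The input came from universal all-10-mer Agilent arrays made double-stranded by primer extension and probed with GST-tagged yeast transcription factors at about 100-200 nM. Fluorescent anti-GST detected bound protein, and masliner normalised the scans.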

First: ACTAAGTA
Second: AAGGGCGC
The “PBM E-score” value of the first is lower: -0.187 for the first, -0.0682 for the second.

Compared with CCGGCCAC, AGGTATGC is lower in “PBM E-score” value: 0.303 for the first, -0.106 for the second.

Compared with CATCTACC, ATAGTGCG is higher in “PBM E-score” value: -0.0486 for the first, 0.125 for the second.

Going from AACACGGA to CCCTCTGC, the “PBM E-score” value falls from 0.315 to -0.301.

Compared with CCGATACA, AATGGCGG is lower in “PBM E-score” value: 0.316 for the first, 0.286 for the second.

Going from CTCAAACC to ATGCTGCG, the “PBM E-score” value falls from -0.0196 to -0.0708.

Going from CCATCTTA to CACAGTAG, the “PBM E-score” value falls from 0.0144 to -0.239.

Going from CGAGGGAG to ACTAGTTG, the “PBM E-score” value falls from -0.0236 to -0.142.

First: GTACAGAC
Second: AATCGGTC
The “PBM E-score” value of the first is lower: -0.288 for the first, 0.246 for the second.

Compared with AAGTCTGG, ATCATATG is higher in “PBM E-score” value: -0.326 for the first, -0.139 for the second.

Going from CAGCAGCA to AGTCTGCA, the “PBM E-score” value rises from -0.26 to -0.0655.

Compared with GATAACGA, GACTCGCA is higher in “PBM E-score” value: -0.0507 for the first, -0.0335 for the second.

First: ATGTAGAG
Second: ATCCATCG
The “PBM E-score” value of the first is lower: -0.144 for the first, 0.0877 for the second.

Compared with CCCTCTAG, CACAATGA is higher in “PBM E-score” value: -0.311 for the first, -0.202 for the second.

First: CAAAATTG
Second: AACCCGGC
The “PBM E-score” value of the first is lower: -0.0658 for the first, 0.313 for the second.

Compared with AGTCGGGA, GACTGCGC is lower in “PBM E-score” value: 0.142 for the first, -0.0407 for the second.

First: TAGGGGCA
Second: CTTTAAAC
The “PBM E-score” value of the first is lower: -0.118 for the first, -0.0952 for the second.

Going from CGGATGAA to GCTCTTCA, the “PBM E-score” value falls from 0.274 to -0.141.

First: CATACTCA
Second: ATAAAACA
The “PBM E-score” value of the first is lower: -0.174 for the first, -0.0379 for the second.

Going from ACCTCGTA to CGCCACAC, the “PBM E-score” value rises from -0.0382 to 0.0664.

First: CCATAGCA
Second: CTCAAGGA
The “PBM E-score” value of the first is lower: -0.167 for the first, -0.0312 for the second.

First: AAGCGCTG
Second: TCAGCCGA
The “PBM E-score” value of the first is lower: 0.0216 for the first, 0.231 for the second.

Going from ACCCATAG to AAGACCTC, the “PBM E-score” value rises from -0.203 to -0.145.

First: GCAGGACA
Second: CCTCGCTA
The “PBM E-score” value of the first is higher: -0.0882 for the first, -0.256 for the second.

First: CTGTTACA
Second: ATATAAGA
The “PBM E-score” value of the first is lower: -0.221 for the first, -0.094 for the second.

First: ACCCGTTA
Second: AAATAAGA
The “PBM E-score” value of the first is lower: 0.00406 for the first, 0.0159 for the second.

First: CAATGCTA
Second: CGTTTGCA
The “PBM E-score” value of the first is lower: -0.268 for the first, -0.0145 for the second.

First: CCGCTCGC
Second: CAAGGAAC
The “PBM E-score” value of the first is higher: 0.318 for the first, 0.0184 for the second.

Compared with AGGCCAAA, CTGTCGAA is lower in “PBM E-score” value: -0.00385 for the first, -0.289 for the second.

Going from AGTGATAA to AAGATTCG, the “PBM E-score” value rises from -0.129 to 0.107.

Compared with GCTTAAGA, AAAGCAAG is higher in “PBM E-score” value: -0.0315 for the first, 0.116 for the second.

Going from AGCTAACG to ATGCAGAC, the “PBM E-score” value falls from -0.226 to -0.252.

Compared with TCAGGCAA, CCCATGAA is higher in “PBM E-score” value: -0.216 for the first, -0.196 for the second.

Going from CTTCCAAA to CGGAGCTC, the “PBM E-score” value rises from -0.169 to 0.441.

Compared with AACAAATG, CCTTTTAC is lower in “PBM E-score” value: 0.00468 for the first, -0.0485 for the second.

First: ACTTAGAT
Second: GGACATAC
The “PBM E-score” value of the first is lower: -0.0121 for the first, 0.165 for the second.

First: CCCGCGAA
Second: ATCGTAAG
The “PBM E-score” value of the first is higher: 0.114 for the first, -0.106 for the second.

Going from AGTAAAAC to ACTGCCGC, the “PBM E-score” value rises from -0.123 to 0.214.

First: CGTGCATC
Second: GAAGATCC
The “PBM E-score” value of the first is lower: -0.152 for the first, 0.145 for the second.

Going from CAGCTAGA to AACGTTTG, the “PBM E-score” value rises from -0.255 to -0.126.

First: CATAGAAC
Second: AGATAACA
The “PBM E-score” value of the first is higher: -0.0911 for the first, -0.113 for the second.

Going from GTGCTCTA to GTCACCAA, the “PBM E-score” value falls from -0.157 to -0.286.

Compared with AATGGGGA, TGGGGGAA is higher in “PBM E-score” value: -0.166 for the first, -0.135 for the second.

First: CCACGGTA
Second: ACGCGCTG
The “PBM E-score” value of the first is higher: 0.07 for the first, -0.145 for the second.

First: GACACAAC
Second: AAACAGTA
The “PBM E-score” value of the first is higher: -0.0648 for the first, -0.0988 for the second.

Compared with GCATATGA, AATGGGCG is lower in “PBM E-score” value: 0.00978 for the first, -0.049 for the second.

First: AAGAGTTA
Second: CGAGCCTA
The “PBM E-score” value of the first is lower: -0.22 for the first, -0.0485 for the second.

First: CCTTTAGC
Second: CATACCGC
The “PBM E-score” value of the first is lower: -0.152 for the first, 0.0643 for the second.

Going from AGCTCGTG to GCCTCCAC, the “PBM E-score” value falls from 0.101 to -0.044.

First: ACCGATCC
Second: AAACGTTT
The “PBM E-score” value of the first is higher: 0.207 for the first, 0.097 for the second.

Compared with CTGCACGA, CTGTGCCC is higher in “PBM E-score” value: -0.238 for the first, -0.0177 for the second.

Compared with AGTGTTCA, GAGGAGAC is lower in “PBM E-score” value: 0.0534 for the first, -0.0694 for the second.

Going from ACCCGTCC to GAAACCAA, the “PBM E-score” value rises from -0.0428 to 0.0455.

Compared with AAGCGCGC, ACGTGCTG is lower in “PBM E-score” value: 0.203 for the first, -0.243 for the second.

First: TCCTAGAA
Second: ATAGGGCC
The “PBM E-score” value of the first is lower: -0.0707 for the first, -0.0457 for the second.

Compared with TCCGGGCA, CCGAGTTC is lower in “PBM E-score” value: 0.406 for the first, 0.256 for the second.

Compared with CCTCGATC, CGATACGC is higher in “PBM E-score” value: -0.0491 for the first, 0.166 for the second.

Compared with AATATGGC, AGTGCACA is higher in “PBM E-score” value: -0.0867 for the first, -0.0486 for the second.

Compared with CAAAATGC, AGCCTGTC is lower in “PBM E-score” value: 0.0166 for the first, -0.224 for the second.

Going from AGGGTTAT to CCATGAGA, the “PBM E-score” value rises from -0.222 to -0.0752.

First: GCTATGTA
Second: GTGGGATA
The “PBM E-score” value of the first is lower: -0.219 for the first, 0.0989 for the second.

Compared with ATCAGTGG, ACATTGGG is higher in “PBM E-score” value: -0.147 for the first, -0.122 for the second.

Going from ATTCTACA to AAATTGGG, the “PBM E-score” value rises from -0.0671 to 0.0673.

Compared with AGAGGGCC, TACTTAGA is lower in “PBM E-score” value: -0.0781 for the first, -0.272 for the second.

Going from ACCAGGCA to CTAACGCC, the “PBM E-score” value rises from -0.243 to 0.117.

First: CTTTTATA
Second: TACAACCA
The “PBM E-score” value of the first is lower: -0.137 for the first, -0.037 for the second.

First: ACGAATCC
Second: AGCTCTCC
The “PBM E-score” value of the first is lower: -0.0473 for the first, -0.0413 for the second.

First: CCGCAGTC
Second: CCTTACAG
The “PBM E-score” value of the first is higher: 0.15 for the first, -0.146 for the second.

First: TTGATCAA
Second: ACGGACGA
The “PBM E-score” value of the first is lower: -0.0727 for the first, 0.177 for the second.

Compared with CAGTAACA, CCAAGCCC is higher in “PBM E-score” value: -0.0814 for the first, -0.0799 for the second.

Going from GTTGCGGA to ATGTTTTA, the “PBM E-score” value falls from 0.316 to -0.276.

Going from AGCATCTG to TAACCTGA, the “PBM E-score” value rises from -0.21 to -0.193.

Going from AGAGAGCC to CAATGAAC, the “PBM E-score” value rises from -0.31 to -0.0994.

Compared with ACACCACG, CTATCGTA is lower in “PBM E-score” value: -0.103 for the first, -0.18 for the second.

Compared with CAATTTTC, AGATCCTC is lower in “PBM E-score” value: 0.0932 for the first, -0.001 for the second.

Going from ACCATGAG to AGGGGGCA, the “PBM E-score” value falls from -0.118 to -0.182.

First: CGATCCCA
Second: AAGAAACT
The “PBM E-score” value of the first is lower: -0.0535 for the first, -0.0525 for the second.

First: ATCTGTTA
Second: ATTATGGC
The “PBM E-score” value of the first is lower: -0.0419 for the first, 0.0441 for the second.

Compared with CAAAATGA, GTGGTATA is lower in “PBM E-score” value: -0.0925 for the first, -0.188 for the second.

Going from AACATAAT to CCTTATCC, the “PBM E-score” value falls from 0.0435 to 0.00991.

Going from CCCCCTGA to ACGAGCAA, the “PBM E-score” value rises from -0.306 to -0.139.

Compared with CGCCGAAG, ACCACTGG is lower in “PBM E-score” value: 0.365 for the first, -0.112 for the second.

Compared with GCCCAGGC, ACTGCAAT is higher in “PBM E-score” value: -0.231 for the first, -0.0461 for the second.

Going from ACTCGCGA to GACGCGCC, the “PBM E-score” value falls from 0.0423 to 0.0222.

Going from AGCAGCAG to CGACCACA, the “PBM E-score” value rises from -0.153 to -0.0971.

Going from ACAATTCC to ACAACGAA, the “PBM E-score” value falls from 0.185 to 0.0769.
